Laboratory results reported in PubChem BioAssay AID1745853 (National Center for Advancing Translational Sciences (NCATS), 2022).
Some of the results follow. Further columns of the screen follow, without active or inactive calls.

How the values were obtained:
Assay in all cases: Primary Screen for Target Class Profiling of Small Molecule Inhibitors of Methyltransferases
[1] = molecular target: Glycine N-methyltransferase (Homo sapiens) (UniProt Q14749); conditions: purified enzyme, MTase-Glo SAH luminescence; measured here: GNMT inhibition; at 40 µM; stronger effect = lower value
In short: (§1)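 Each enzyme was reacted with SAM and its substrate, with compounds tested once at 40 uM; SAH formed was read by MTase-Glo luminescence.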

[2] = molecular target: Guanidinoacetate N-methyltransferase (Homo sapiens) (UniProt Q14353); conditions: purified enzyme, MTase-Glo SAH luminescence; measured here: GAMT inhibition; at 40 µM; stronger effect = lower value
In short: as §1

[3] = molecular target: Histamine N-methyltransferase (Homo sapiens) (UniProt P50135); conditions: purified enzyme, MTase-Glo SAH luminescence; measured here: HNMT inhibition; at 40 µM; stronger effect = lower value
In short: as §1

[4] = molecular target: Nicotinamide N-methyltransferase (Homo sapiens) (UniProt P40261); conditions: purified enzyme, MTase-Glo SAH luminescence; measured here: NNMT inhibition; at 40 µM; stronger effect = lower value
In short: as §1

[5] = molecular target: Phenylethanolamine N-methyltransferase (Homo sapiens) (UniProt P11086); conditions: purified enzyme, MTase-Glo SAH luminescence; measured here: PNMT inhibition; at 40 µM; stronger effect = lower value
In short: as §1
% is scaled to controls: 0 for no effect and ±100 for the full control effect.

SMILES | activity change, negative = inhibition [1] | activity change, negative = inhibition [2] | activity change, negative = inhibition [3] | activity change, negative = inhibition [4] | activity change, negative = inhibition [5]
CC1CCCN1c1ncnc2c1CN(c1ccccc1F)C(=O)CN2C (stereo unspecified) | -9.29% | -11% | -8.26% | -22% | -10.3%
c1nc2nc(Nc3ccc(N4CCOCC4)cc3)nc(NC3CCCCC3)c2[nH]1 | -22.1% | -3.08% | -28.8% | -39.6% | -9.84%
CCCN1C(=O)c2c(C(=O)NCCc3cccs3)ncn2CC1(C)C(=O)NCCC(C)C (stereo unspecified) | -4.01% | 0% | -2.96% | -5.59% | -0.456%
CN1CCc2cc(Nc3ncc(C4CC4)c(NCCCNC(=O)C4CCC4)n3)ccc2C1 | – | -10.9% | – | -28.8% | -9.68%
CC(=O)N1CCC(Cc2ccc(C(=O)N(C)Cc3cccnc3)cc2)CC1 | -1.56% | -2.4% | 1.38% | -1.95% | -1.61%
COc1ccccc1CCN1C(=O)c2cc3ccccc3n2CC1(C)C(=O)NCc1ccccc1 (stereo unspecified) | -10.7% | 1.79% | -2.3% | -4.28% | -2.96%
Cc1nc(N2CCCCC2)n(CC(=O)Nc2ccc(Br)cc2)c(=O)c1C | -4.69% | -3.26% | -4.12% | -5.32% | 1.02%
CCCCCCCC/C=C\CCCCCCCC(=O)NCCO | -4.78% | 2.45% | -2.09% | -12.3% | -5.04%
CCc1ccc(NC(=O)N2CCN(C)C3(CCC(=O)N(C)CC3)C2)cc1 (stereo unspecified) | -1.31% | -2.68% | -0.547% | -3.82% | 0.372%
Cc1occc1C(=O)N1CCC2(CC1)N=C(CC(C)C)NC2=O | -1.75% | -1.89% | 0.064% | 0.383% | -0.241%
CC[C@@H]1[C@H]2CCCCN3C(=O)C[C@H]([C@@H]4[C@H]1OC(=O)[C@H]4C)[C@@H]23 | 2.78% | 3.92% | 3.89% | -6.8% | 1.62%
CC1(C(=O)NC2CCCCC2)Cn2c(cc3sccc32)C(=O)N1Cc1ccccc1 (stereo unspecified) | -2.9% | 1.28% | 0.384% | 1.01% | -0.871%
C/C=C/[C@@H]1C=C[C@@H]2C[C@H](C)CC[C@H]2[C@]1(C)/C(O)=C1/C(=O)[C@@H](CO)N(C)C1=O | 3.52% | 19.8% | 6.4% | 4.74% | 8.99%
Cc1ccc(Cn2c(=O)c3ccc(C(=O)NCC(C)C)cc3n3c(=O)[nH]nc23)cc1 | -9.16% | 0.114% | 2.02% | -19.8% | -5.95%
COc1ccccc1CCNC(=O)CCn1ccc2cc(S(=O)(=O)N3CCCCC3)ccc21 | -1.84% | -2.67% | 2.39% | -10.7% | -7.66%
Cc1ccccc1OCC(=O)Nc1cccn2nc(-c3cccnc3)nc12 | -1.05% | 0.208% | 2.67% | -5.18% | -1.24%
Cc1cc2c(cc3n2CC(C)(C(=O)NC2CCCCCC2)N(CCc2ccccc2)C3=O)o1 (stereo unspecified) | 5.6% | -26.7% | 8.85% | 3.72% | 4%
Clc1ncoc1-c1c[nH]c2ccccc12 | -2.06% | -5.74% | 2.02% | -19.5% | -15.4%
CC(C)(O[C@@H]1O[C@H](CO)[C@@H](O)[C@H](O)[C@H]1O)C(OC(=O)/C=C\c1ccc(O)cc1)C(=O)OCc1ccc(O[C@@H]2O[C@H](CO)[C@@H](O)[C@H](O)[C@H]2O)cc1 (stereo partly specified) | 3.64% | 1% | -1.87% | -9.03% | 0.369%
CCC(C)NC(=O)c1ccc2c(=O)n(C)c3nn(Cc4ccccc4C)c(=O)n3c2c1 (stereo unspecified) | 1.32% | 3.7% | 5.57% | 1.08% | 3.62%

SMILES | activity change, negative = inhibition [1] | activity change, negative = inhibition [2] | activity change, negative = inhibition [3] | activity change, negative = inhibition [4] | activity change, negative = inhibition [5]
C[C@@H](O)[C@H]1C(=O)N2C(C(=O)O)=C(S[C@@H]3CN[C@H](C(=O)N(C)C)C3)[C@H](C)[C@H]12 | – | 2.99% | – | -9.49% | -0.512%
CC(O)CO[C@@H]1O[C@H](CO)[C@@H](O)[C@H](O)[C@H]1O (stereo partly specified) | 0% | 8.25% | -8.21% | -5.45% | 5.87%
Cc1nc(N2CCC(NC(=O)C3CCCCC3)CC2)cc(C(F)(F)F)n1 | -2.82% | -6.57% | -1.4% | -0.23% | -23.4%
Cc1ccc(N2C(=O)c3cc4oc(C)cc4n3CC2(C)C(=O)NC2CCCCCC2)c(C)c1 (stereo unspecified) | 0.322% | 5.08% | 4.86% | 9.87% | -1.42%
CC(C)Cc1cnc(C2CCCN(C(=O)OC(C)(C)C)C2)[nH]1 (stereo unspecified) | -1.47% | 0.933% | -1.87% | -5.25% | -4.99%
Cc1cccc(C(=O)N2CCCC(c3noc(-c4cc5c(=O)[nH]c(C)cn5n4)n3)C2)c1 (stereo unspecified) | -7.58% | -7.8% | -4.57% | -19.5% | -2.22%
O=C1NC(=NC2CCCC2)C2(CCN(Cc3cccnc3)C2)N1c1cc(F)cc(F)c1 (stereo unspecified) | -7.67% | -11% | -5.84% | -21.4% | -14%
CCC(C)(C)C(=O)N1CCC2(CC1)N(C)C(=O)CS2(=O)=O | -2.04% | 1.61% | 2.27% | -5.98% | -3.64%
C[S+](=O)([O-])CCn1ncc2cc(OCc3cccc(-c4cccc(F)c4)c3)ccc21 | -5.32% | -3.23% | 0.406% | -9.34% | 6.33%
Cc1ccc(Cn2c(=O)c3ccccc3n3c(=O)n(Cc4cccc(F)c4)nc23)cc1 | 2.22% | 3.81% | 8.11% | -2.82% | 2.92%
COC(=O)N1CCCCC12Cc1ccccc1NC2=O (stereo unspecified) | -5.5% | -7.29% | -1.9% | -14.2% | -5.65%
CCN1CC(c2ccccc2)CC2(CCN(C(=O)c3ccon3)CC2)C1 (stereo unspecified) | -1.3% | 3.52% | -5.76% | 0.528% | 11.8%
Cc1cc(C(=O)N2CCCC(C(=O)Nc3cccc(-c4cc5ccccc5[nH]4)c3)C2)nn1C (stereo unspecified) | -7.48% | -4.3% | -4.84% | -14.7% | -16.3%
CCCn1c(=O)c2ccc(C(=O)NC(C)CC)cc2n2c(=O)n(CC(=O)Nc3ccc(Cl)cc3)nc12 (stereo unspecified) | 0.856% | 8.25% | 5.04% | -0.948% | 1.97%
Cn1ncc2c(C(=O)N3CCC(C#N)CC3)cc(-c3cc(Cl)cc(Cl)c3)nc21 | -7.17% | -5.19% | -7.2% | -12.8% | 8.83%
CCOC(=O)c1cc2n(n1)CC(C)(C(=O)NC1CCC(C)CC1)N(c1ccc(C)c(F)c1)C2=O (stereo unspecified) | -5.48% | 2.38% | -3.42% | -4.27% | -8.96%
CC1(C(=O)NC2CCCC2)Cn2c(ccc2-c2ccco2)C(=O)N1Cc1cccnc1 (stereo unspecified) | 3.05% | 1.29% | 8.7% | 9.31% | 2.16%
O=C(C1CCCN(C2CCN(c3ncccn3)CC2)C1)N1CCOCC1 (stereo unspecified) | -0.176% | 0.074% | -0.626% | 2.88% | 16.1%
CNC(=O)CC1CCOC2(CCN(S(=O)(=O)c3cc(OC)ccc3OC)CC2)C1 (stereo unspecified) | 5.69% | 1.53% | 16.4% | 6.55% | 11.3%
CCOCCCN1C(=O)c2cc(-c3ccccc3)nn2CC1(C)C(=O)NCc1ccccc1 (stereo unspecified) | 0.981% | 1.41% | 1.27% | -2.35% | -1.74%

SMILES | activity change, negative = inhibition [1] | activity change, negative = inhibition [2] | activity change, negative = inhibition [3] | activity change, negative = inhibition [4] | activity change, negative = inhibition [5]
CC(C)c1cc(C(=O)N2CC[C@H](NC(=O)C3CC3)C2)n[nH]1 | -4.97% | 4.24% | -4.49% | -19.3% | -12%
Cc1cnc(CC2CCN(C(=O)Nc3ccc4c(c3)OCCO4)C2)n1C1CC1 (stereo unspecified) | -7.06% | -10.6% | -25.7% | -21% | -9.9%
COc1ccccc1-c1cccc(CN2CCC(NC(C)=O)CC2)c1 | -7.28% | -11.3% | -5.36% | -19.8% | -23%
COc1ccc2cc3n(c2c1)CC(C)(C(=O)NC1CCCCC1)N(CCN1CCCC1)C3=O (stereo unspecified) | -1.79% | -0.429% | -3.86% | -5.05% | -2.79%
CC1(C(=O)NC2CCCCCCC2)Cn2c(ccc2-c2ccccc2)C(=O)N1Cc1ccco1 (stereo unspecified) | -4.3% | 0.816% | -7.93% | -18.4% | -7.14%
CC(C)Cn1c(=O)c2ccc(C(=O)NC3CCCCC3)cc2n2c(=O)n(Cc3ccccc3F)nc12 | 3.67% | 0.13% | 3.31% | 2.15% | 4.63%
COc1ccccc1CNC(=O)C1c2c(n(C)c3ccccc23)SCC(=O)N1c1ccc(C)cc1Cl (stereo unspecified) | 7.15% | 1.74% | -1.49% | -3.32% | 1.08%
COc1cccc(CC(=O)N2CCC(CC3CC3)(NC(=O)c3ccccc3)CC2)c1 | -3.39% | -3.61% | -0.721% | -3.38% | 3.96%
CN(C)C(=O)NC1(c2ccccc2)CCN(CCC[C@]2(c3ccc(Cl)c(Cl)c3)CCCN(C(=O)c3ccccc3)C2)CC1 | -3.26% | 4.83% | -7.48% | -39.9% | -4.98%
CC(C)CCNC(=O)C1c2c(n(C)c3ccccc23)SCC(=O)N1c1ccc(F)cc1 (stereo unspecified) | 7.39% | 2.39% | 1.84% | 2.38% | 5.73%
Cc1cc(S(=O)(=O)N2CCN(C3CCN(Cc4ccccn4)C3=O)CC2)ccc1Cl (stereo unspecified) | -4.07% | -4.44% | -4.12% | -8.8% | -6.83%
COc1ccc(C(=O)Cn2nc3n(Cc4ccc(F)cc4)c(=O)c4ccccc4n3c2=O)cc1OC | 6.19% | 0% | 12.5% | 5.3% | 8.27%
CCOC(=O)c1cc2n(n1)CC(C)(C(=O)NCc1ccc(C)cc1)N(c1ccccc1CC)C2=O (stereo unspecified) | 3.87% | 1.06% | 4.79% | 6.97% | 4.58%
O=C([C@@H]1C[C@H](F)CN1C(=O)c1ccc(Cl)cc1)N1CCCCC1 | -3.09% | -1.32% | -0.591% | -1% | -2.48%
Cc1ccc(-c2noc(CCCC(=O)N3CCC(CCOc4ccccc4F)C3)n2)cc1 (stereo unspecified) | -4.51% | -6.87% | -5.36% | -17% | -10.1%
CC(=O)N1CC2(CCN(C3CCCCC3)CC2)Cc2ccccc21 | -6.02% | -5.83% | -19.7% | -8.87% | -10.1%
Cc1ccccc1CN1C(=O)c2cc3ccccc3n2CC1(C)C(=O)NCc1ccccc1 (stereo unspecified) | -2.85% | 3.99% | -2.34% | -5.37% | -4.13%
CC1=NOC2(CCN(C(=O)c3ccccc3)C2)C1 (stereo unspecified) | -7.26% | -7.68% | -5.02% | -19.6% | -8.07%
O=S(=O)(c1ccccc1)N1CCCC(Cc2noc(-c3ccncc3)n2)C1 (stereo unspecified) | -3.81% | 2.88% | 0.497% | -2.47% | -15.7%
CCN(CC)c1nc2c(S(=O)(=O)c3ccc(C(C)C)cc3)nnn2c2ccccc12 | -8.53% | -1.45% | -11.3% | -12.7% | -16.2%
